Some of the results follow. The list includes weakly bound sequences.

Drawing on publication PMC12820563, this text covers binding signal (RPM ratio (pull-down/input)) for 63 sequences.

The assay addresses T1, MBP-FoxP3dN (UniProt Q99JB6).
T1 sequence: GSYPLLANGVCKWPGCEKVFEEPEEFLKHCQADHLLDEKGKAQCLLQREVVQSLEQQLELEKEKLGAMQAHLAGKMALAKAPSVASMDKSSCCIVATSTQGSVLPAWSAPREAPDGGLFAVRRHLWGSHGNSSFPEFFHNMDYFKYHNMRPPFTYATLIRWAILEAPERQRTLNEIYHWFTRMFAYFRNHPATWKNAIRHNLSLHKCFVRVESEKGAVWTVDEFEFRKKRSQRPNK
In words: PD-seq (MBP pull-down with sequencing). The following applies: 20 mM Tris-HCl pH 7.5, 100 mM NaCl, 1.5 mM MgCl2, 0.4 uM protein, 0.1 uM dsDNA library, 30 min, room temperature, amylose pull-down; high values mean tight binding; double strand, one strand shown.
Consider “GATGATTGTTCTCCCAGCTGATGAATTGCATCCTTCGAGTAAACAAATTTTCCTAATCTTTCTGTTCAAGCGCCATCTAC”, for which the binding signal (RPM ratio (pull-down/input)) came out at 5.53.
Consider “GATGATTGTTCTCCCAGCTGATGAATTTTGGCAATCGAGTAAACAAATTTTCCTAATCTTTCTGTTCAAGCGCCATCTAC”, for which the binding signal (RPM ratio (pull-down/input)) came to 2.45.
To “GATGATTGTTCTCCCAGCTGATGAATTGGTAATCTCGAGTAAACAAATTTTCCTAATCTTTCTGTTCAAGCGCCATCTAC” belongs 0.758; to “GATGATTGTTCTCCCAGCTGATGAATTACGTAACTCGAGTAAACAAATTTTCCTAATCTTTCTGTTCAAGCGCCATCTAC”, 1.38.
The result for “GATGATTGTTCTCCCAGCTGATGAATTTCTAGGTTCGAGTAAACAAATTTTCCTAATCTTTCTGTTCAAGCGCCATCTAC” reads 0.257; that for “GATGATTGTTCTCCCAGCTGATGAATTTCCATTATCGAGTAAACAAATTTTCCTAATCTTTCTGTTCAAGCGCCATCTAC”, 0.461; that for “GATGATTGTTCTCCCAGCTGATGAATTATAGCCCTCGAGTAAACAAATTTTCCTAATCTTTCTGTTCAAGCGCCATCTAC”, 0.551.
To “GATGATTGTTCTCCCAGCTGATGAATTACAAGCATCGAGTAAACAAATTTTCCTAATCTTTCTGTTCAAGCGCCATCTAC” belongs 1.16; to “GATGATTGTTCTCCCAGCTGATGAATTGTAAAGGTCGAGTAAACAAATTTTCCTAATCTTTCTGTTCAAGCGCCATCTAC”, 0.258; to “GATGATTGTTCTCCCAGCTGATGAATTCTGTCACTCGAGTAAACAAATTTTCCTAATCTTTCTGTTCAAGCGCCATCTAC”, 3.22.
Consider “GATGATTGTTCTCCCAGCTGATGAATTCGTCTCCTCGAGTAAACAAATTTTCCTAATCTTTCTGTTCAAGCGCCATCTAC”, for which the binding signal (RPM ratio (pull-down/input)) is 0.471.
The result for “GATGATTGTTCTCCCAGCTGATGAATTGGGATGCTCGAGTAAACAAATTTTCCTAATCTTTCTGTTCAAGCGCCATCTAC” reads 0.866; that for “GATGATTGTTCTCCCAGCTGATGAATTGAGGGACTCGAGTAAACAAATTTTCCTAATCTTTCTGTTCAAGCGCCATCTAC”, 0.384; that for “GATGATTGTTCTCCCAGCTGATGAATTGCCTCATTCGAGTAAACAAATTTTCCTAATCTTTCTGTTCAAGCGCCATCTAC”, 0.981.
The result for “GATGATTGTTCTCCCAGCTGATGAATTGACGAAATCGAGTAAACAAATTTTCCTAATCTTTCTGTTCAAGCGCCATCTAC” reads 0.356; that for “GATGATTGTTCTCCCAGCTGATGAATTACTCAACTCGAGTAAACAAATTTTCCTAATCTTTCTGTTCAAGCGCCATCTAC”, 0.336.
The result for “GATGATTGTTCTCCCAGCTGATGAATTCAGGTGCTCGAGTAAACAAATTTTCCTAATCTTTCTGTTCAAGCGCCATCTAC” reads 0.442; that for “GATGATTGTTCTCCCAGCTGATGAATTGGGTGAATCGAGTAAACAAATTTTCCTAATCTTTCTGTTCAAGCGCCATCTAC”, 0.321; that for “GATGATTGTTCTCCCAGCTGATGAATTCCCCGCTTCGAGTAAACAAATTTTCCTAATCTTTCTGTTCAAGCGCCATCTAC”, 0.281.
As to “GATGATTGTTCTCCCAGCTGATGAATTCGGATAATCGAGTAAACAAATTTTCCTAATCTTTCTGTTCAAGCGCCATCTAC”, the binding signal (RPM ratio (pull-down/input)) amounted to 0.272.
The result for “GATGATTGTTCTCCCAGCTGATGAATTGATTGTATCGAGTAAACAAATTTTCCTAATCTTTCTGTTCAAGCGCCATCTAC” reads 2.11; that for “GATGATTGTTCTCCCAGCTGATGAATTGTAATGTTCGAGTAAACAAATTTTCCTAATCTTTCTGTTCAAGCGCCATCTAC”, 1.55.
To “GATGATTGTTCTCCCAGCTGATGAATTGGCTCCGTCGAGTAAACAAATTTTCCTAATCTTTCTGTTCAAGCGCCATCTAC” belongs 0.231; to “GATGATTGTTCTCCCAGCTGATGAATTAGATTGCTCGAGTAAACAAATTTTCCTAATCTTTCTGTTCAAGCGCCATCTAC”, 1.88.
To “GATGATTGTTCTCCCAGCTGATGAATTGTATATATCGAGTAAACAAATTTTCCTAATCTTTCTGTTCAAGCGCCATCTAC” belongs 3.21; to “GATGATTGTTCTCCCAGCTGATGAATTCATCCTTTCGAGTAAACAAATTTTCCTAATCTTTCTGTTCAAGCGCCATCTAC”, 0.37; to “GATGATTGTTCTCCCAGCTGATGAATTATGCTTATCGAGTAAACAAATTTTCCTAATCTTTCTGTTCAAGCGCCATCTAC”, 4.84.
Consider “GATGATTGTTCTCCCAGCTGATGAATTCAACCCCTCGAGTAAACAAATTTTCCTAATCTTTCTGTTCAAGCGCCATCTAC”, for which the binding signal (RPM ratio (pull-down/input)) is 0.287.
“GATGATTGTTCTCCCAGCTGATGAATTTTCCATATCGAGTAAACAAATTTTCCTAATCTTTCTGTTCAAGCGCCATCTAC”: the binding signal (RPM ratio (pull-down/input)) stood at 0.304.
The result for “GATGATTGTTCTCCCAGCTGATGAATTATTATACTCGAGTAAACAAATTTTCCTAATCTTTCTGTTCAAGCGCCATCTAC” reads 0.575.
To “GATGATTGTTCTCCCAGCTGATGAATTTGTGTGATCGAGTAAACAAATTTTCCTAATCTTTCTGTTCAAGCGCCATCTAC” belongs 3.4; to “GATGATTGTTCTCCCAGCTGATGAATTGCTCGTATCGAGTAAACAAATTTTCCTAATCTTTCTGTTCAAGCGCCATCTAC”, 0.705.
To “GATGATTGTTCTCCCAGCTGATGAATTATCGCATTCGAGTAAACAAATTTTCCTAATCTTTCTGTTCAAGCGCCATCTAC” belongs 6.64; to “GATGATTGTTCTCCCAGCTGATGAATTGTTAATTTCGAGTAAACAAATTTTCCTAATCTTTCTGTTCAAGCGCCATCTAC”, 0.632; to “GATGATTGTTCTCCCAGCTGATGAATTACGGTCCTCGAGTAAACAAATTTTCCTAATCTTTCTGTTCAAGCGCCATCTAC”, 0.477.
As for “GATGATTGTTCTCCCAGCTGATGAATTGGTCGATTCGAGTAAACAAATTTTCCTAATCTTTCTGTTCAAGCGCCATCTAC”, the binding signal (RPM ratio (pull-down/input)) is 0.35.
The result for “GATGATTGTTCTCCCAGCTGATGAATTTGCCGACTCGAGTAAACAAATTTTCCTAATCTTTCTGTTCAAGCGCCATCTAC” reads 0.401; that for “GATGATTGTTCTCCCAGCTGATGAATTAGGCCGCTCGAGTAAACAAATTTTCCTAATCTTTCTGTTCAAGCGCCATCTAC”, 1.23.
In the case of “GATGATTGTTCTCCCAGCTGATGAATTAAGTTGATCGAGTAAACAAATTTTCCTAATCTTTCTGTTCAAGCGCCATCTAC”, the binding signal (RPM ratio (pull-down/input)) was 2.52.
The result for “GATGATTGTTCTCCCAGCTGATGAATTTGAGGACTCGAGTAAACAAATTTTCCTAATCTTTCTGTTCAAGCGCCATCTAC” reads 0.446.
To “GATGATTGTTCTCCCAGCTGATGAATTTGCGATTTCGAGTAAACAAATTTTCCTAATCTTTCTGTTCAAGCGCCATCTAC” belongs 1.58; to “GATGATTGTTCTCCCAGCTGATGAATTCTAATGGTCGAGTAAACAAATTTTCCTAATCTTTCTGTTCAAGCGCCATCTAC”, 0.513; to “GATGATTGTTCTCCCAGCTGATGAATTCTGTTGGTCGAGTAAACAAATTTTCCTAATCTTTCTGTTCAAGCGCCATCTAC”, 5.56.
The result for “GATGATTGTTCTCCCAGCTGATGAATTTCAATATTCGAGTAAACAAATTTTCCTAATCTTTCTGTTCAAGCGCCATCTAC” reads 0.823.
Consider “GATGATTGTTCTCCCAGCTGATGAATTCGGTCCCTCGAGTAAACAAATTTTCCTAATCTTTCTGTTCAAGCGCCATCTAC”, for which the binding signal (RPM ratio (pull-down/input)) worked out at 0.386.
To “GATGATTGTTCTCCCAGCTGATGAATTCGGCACTTCGAGTAAACAAATTTTCCTAATCTTTCTGTTCAAGCGCCATCTAC” belongs 0.811; to “GATGATTGTTCTCCCAGCTGATGAATTGTCCGCCTCGAGTAAACAAATTTTCCTAATCTTTCTGTTCAAGCGCCATCTAC”, 0.568.
The result for “GATGATTGTTCTCCCAGCTGATGAATTCGAGGTCTCGAGTAAACAAATTTTCCTAATCTTTCTGTTCAAGCGCCATCTAC” reads 0.534.
“GATGATTGTTCTCCCAGCTGATGAATTCCCACGTTCGAGTAAACAAATTTTCCTAATCTTTCTGTTCAAGCGCCATCTAC”: the binding signal (RPM ratio (pull-down/input)) is 0.282.
To “GATGATTGTTCTCCCAGCTGATGAATTGTTCCCCTCGAGTAAACAAATTTTCCTAATCTTTCTGTTCAAGCGCCATCTAC” belongs 0.362.
To “GATGATTGTTCTCCCAGCTGATGAATTGGAATGTTCGAGTAAACAAATTTTCCTAATCTTTCTGTTCAAGCGCCATCTAC” belongs 0.569; to “GATGATTGTTCTCCCAGCTGATGAATTGCCCGGATCGAGTAAACAAATTTTCCTAATCTTTCTGTTCAAGCGCCATCTAC”, 0.298; to “GATGATTGTTCTCCCAGCTGATGAATTCCGCTGCTCGAGTAAACAAATTTTCCTAATCTTTCTGTTCAAGCGCCATCTAC”, 0.62.
To “GATGATTGTTCTCCCAGCTGATGAATTGTATGTTTCGAGTAAACAAATTTTCCTAATCTTTCTGTTCAAGCGCCATCTAC” belongs 3.89; to “GATGATTGTTCTCCCAGCTGATGAATTGAAGTACTCGAGTAAACAAATTTTCCTAATCTTTCTGTTCAAGCGCCATCTAC”, 0.422; to “GATGATTGTTCTCCCAGCTGATGAATTGGCCAAATCGAGTAAACAAATTTTCCTAATCTTTCTGTTCAAGCGCCATCTAC”, 0.278.
In the case of “GATGATTGTTCTCCCAGCTGATGAATTGGACATTTCGAGTAAACAAATTTTCCTAATCTTTCTGTTCAAGCGCCATCTAC”, the binding signal (RPM ratio (pull-down/input)) came out at 0.483.
The result for “GATGATTGTTCTCCCAGCTGATGAATTGGGACCATCGAGTAAACAAATTTTCCTAATCTTTCTGTTCAAGCGCCATCTAC” reads 0.5.
To “GATGATTGTTCTCCCAGCTGATGAATTCCAGCTTTCGAGTAAACAAATTTTCCTAATCTTTCTGTTCAAGCGCCATCTAC” belongs 0.831; to “GATGATTGTTCTCCCAGCTGATGAATTTCGAGCCTCGAGTAAACAAATTTTCCTAATCTTTCTGTTCAAGCGCCATCTAC”, 0.476.
The result for “GATGATTGTTCTCCCAGCTGATGAATTTATCCACTCGAGTAAACAAATTTTCCTAATCTTTCTGTTCAAGCGCCATCTAC” reads 0.635; that for “GATGATTGTTCTCCCAGCTGATGAATTTCCATAATCGAGTAAACAAATTTTCCTAATCTTTCTGTTCAAGCGCCATCTAC”, 0.332; that for “GATGATTGTTCTCCCAGCTGATGAATTCTAGGAGTCGAGTAAACAAATTTTCCTAATCTTTCTGTTCAAGCGCCATCTAC”, 0.233.
